Experimental data taken from patent US20250270341A1 (Alector, published 2025).
Values belong to the binder of their own block, whether it stands above or below them.

Legend:
Test in all cases: FACS, 5 ug/ml
[1] = target: T1, Full length human CD98hc on CHO cells (human)
T1 construct: CHO cells stably overexpressing it; also called CHO-human CD98hc; CHO-huCD98hc
T1 chain: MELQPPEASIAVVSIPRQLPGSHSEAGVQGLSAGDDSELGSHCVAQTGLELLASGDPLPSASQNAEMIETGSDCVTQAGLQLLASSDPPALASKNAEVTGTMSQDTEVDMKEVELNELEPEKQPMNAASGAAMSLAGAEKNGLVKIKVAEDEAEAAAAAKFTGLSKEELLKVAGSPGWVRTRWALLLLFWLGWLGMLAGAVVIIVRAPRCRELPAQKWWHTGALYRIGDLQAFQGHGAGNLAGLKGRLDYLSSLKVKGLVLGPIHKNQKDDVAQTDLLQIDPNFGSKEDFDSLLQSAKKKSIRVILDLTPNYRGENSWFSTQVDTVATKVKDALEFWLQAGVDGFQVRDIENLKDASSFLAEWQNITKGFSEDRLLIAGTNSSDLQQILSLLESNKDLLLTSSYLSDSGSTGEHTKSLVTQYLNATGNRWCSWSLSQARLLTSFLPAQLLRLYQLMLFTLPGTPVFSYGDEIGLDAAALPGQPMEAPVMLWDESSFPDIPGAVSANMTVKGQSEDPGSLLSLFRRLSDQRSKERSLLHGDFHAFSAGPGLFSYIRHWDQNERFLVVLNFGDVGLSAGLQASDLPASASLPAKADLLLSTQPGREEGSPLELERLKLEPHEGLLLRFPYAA

[2] = target: T2, Full length mouse CD98hc on CHO cells (mouse, UniProt P10852 1-526)
T2 construct: CHO cells stably overexpressing it; also called CHO-mouse CD98hc; CHO-mCD98hc
T2 sequence: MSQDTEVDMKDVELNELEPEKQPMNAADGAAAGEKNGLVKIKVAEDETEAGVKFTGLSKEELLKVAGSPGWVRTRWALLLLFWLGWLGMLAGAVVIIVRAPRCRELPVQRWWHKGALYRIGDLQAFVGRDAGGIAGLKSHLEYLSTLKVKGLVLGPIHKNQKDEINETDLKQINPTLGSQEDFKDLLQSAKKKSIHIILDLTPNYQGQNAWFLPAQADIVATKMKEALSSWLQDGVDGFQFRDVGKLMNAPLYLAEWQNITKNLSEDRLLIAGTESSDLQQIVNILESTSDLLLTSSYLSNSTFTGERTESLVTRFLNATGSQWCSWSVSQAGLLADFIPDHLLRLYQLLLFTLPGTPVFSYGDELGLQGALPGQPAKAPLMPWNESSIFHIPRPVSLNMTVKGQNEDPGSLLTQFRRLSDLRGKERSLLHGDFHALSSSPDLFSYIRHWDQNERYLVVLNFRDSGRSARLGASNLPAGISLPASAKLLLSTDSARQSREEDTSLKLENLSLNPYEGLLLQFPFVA

[3] = target: T3, human CD98hc endogenously expressed on HCMEC/D3 cells (human)
T3 construct: human brain endothelial cell line
T3 chain: T1 chain

MFI fold-change relative to isotype hIgG1 [1]: 30.9
MFI fold-change relative to isotype hIgG1 [2]: 1.2
MFI fold-change relative to isotype hIgG1 [3]: 96.7
B1: CD98hc.04.012 (2+1 bispecific antibody) (bispecific antibody)
heavy 1: EVRLLESGGGLVQPGGSLRLSCAASGFTFSNYAMGWVRQAPGKGLEWVSAISGSGGSTYYADSVKGRFTTSRDDSKNALYLQMNSLRAEDTAVYYCARGGPGWYAADVWGQGTTVTVSSASTKGPSVFPLAPSSKSTSGGTAALGCLVKDYFPEPVTVSWNSGALTSGVHTFPAVLQSSGLYSLSSVVTVPSSSLGTQTYICNVNHKPSNTKVDKKV[here human IgG1 Fc with changes without letters]GGGGSGGGGSGGGGSQVQLQQSGADLVRPGDSVKISCKGSGYTFTDNTLHWVKQSHAKSLEWIGVISPYYGDASYNQKFKGKATMTVDKSSSTAYMELARLTSEDSAIYYCARVGGRLRLGYYFDHWGQGTTLTVSSGGSEGKSSGSGSESKSTGGSNIMMTQSPSSLAVSAGEKVTMNCKSSQSVLSSSNQKNYLAWYQQKPGQSPKLLIYWASTRESGVPARFTGSGSGTDFSLTITSVQAEDLAVYYCLQYLSSYTFGGGTKLEIK
heavy 2: EVRLLESGGGLVQPGGSLRLSCAASGFTFSNYAMGWVRQAPGKGLEWVSAISGSGGSTYYADSVKGRFTTSRDDSKNALYLQMNSLRAEDTAVYYCARGGPGWYAADVWGQGTTVTVSS[here human IgG1 constant region with changes without letters]
light: DIQMTQSPSSLSASVGDRVTITCRASQSISSYLNWYQQKPGKAPKLLIYAASSLQSGVPSRFSGSGSGTDFTLTISSLQPEDFATYYCQQADLPAFAFGGGTKVEIKRTVAAPSVFIFPPSDEQLKSGTASVVCLLNNFYPREAKVQWKVDNALQSGNSQESVTEQDSKDSTYSLSSTLTLSKADYEKHKVYACEVTHQGLSSPVTKSFNRGEC

MFI fold-change relative to isotype hIgG1 [1]: 26.4
MFI fold-change relative to isotype hIgG1 [2]: 1.3
MFI fold-change relative to isotype hIgG1 [3]: 82.1
B2: CD98hc.04.013 (2+1 bispecific antibody) (bispecific antibody)
heavy 1: EVRLLESGGGLVQPGGSLRLSCAASGFTFSNYAMGWVRQAPGKGLEWVSAISGSGGSTYYADSVKGRFTTSRDDSKNALYLQMNSLRAEDTAVYYCARGGPGWYAADVWGQGTTVTVSSASTKGPSVFPLAPSSKSTSGGTAALGCLVKDYFPEPVTVSWNSGALTSGVHTFPAVLQSSGLYSLSSVVTVPSSSLGTQTYICNVNHKPSNTKVDKKV[here human IgG1 Fc with changes without letters]GGGGSGGGGSGGGGSEVQLVESGGDLGMPGGSLKLSCAASGFALSGYDMSWVRQTPDKRLEWVAYLSSGGGSTYYPYTVKGRFTISRDNAQNTLYLQMSSLKSEDTAIYYCARHSEVRPWFGYWGQGTLVTVSAGGSEGKSSGSGSESKSTGGSDIVMSQSPSSLAVSVGEKVTLTCKSSQSLLYSGNQKNYLAWYQQNPGQSPKLLIYWASTRESGVPDRFTGSGSGTDFTLTISSVKAEDLAVYYCQQYYTYPPTFGAGTKLGLK
heavy 2: EVRLLESGGGLVQPGGSLRLSCAASGFTFSNYAMGWVRQAPGKGLEWVSAISGSGGSTYYADSVKGRFTTSRDDSKNALYLQMNSLRAEDTAVYYCARGGPGWYAADVWGQGTTVTVSS[here human IgG1 constant region with changes without letters]
light: B1 light

MFI fold-change relative to isotype hIgG1 [1]: 14.8
MFI fold-change relative to isotype hIgG1 [2]: 0.7
MFI fold-change relative to isotype hIgG1 [3]: 53.4
B3: CD98hc.04.018 (2+1 bispecific antibody) (bispecific antibody)
heavy 1: EVRLLESGGGLVQPGGSLRLSCAASGFTFSNYAMGWVRQAPGKGLEWVSAISGSGGSTYYADSVKGRFTTSRDDSKNALYLQMNSLRAEDTAVYYCARGGPGWYAADVWGQGTTVTVSSASTKGPSVFPLAPSSKSTSGGTAALGCLVKDYFPEPVTVSWNSGALTSGVHTFPAVLQSSGLYSLSSVVTVPSSSLGTQTYICNVNHKPSNTKVDKKV[here human IgG1 Fc with changes without letters]GGGGSGGGGSGGGGSQIQLVQSGPELKKPGETVKISCKASGYTFRNYGMNWVKQAPGKGLKWMGWINTYTGEPTYAEDFKGRFAFSLETSASTAYLQINKLKNEDEATYFCARGEAHWYFDVWGAGTTVTVSSGGSEGKSSGSGSESKSTGGSQIVLTQSPAIMSASLGERVTMTCTASSSVSSSYLYWYQQKPGSSPKLWIYSIFNLASGVPARFSGSGSGTSYSLTISSMEAEDAATYYCHQYHRSPPTFGGGTKLEIK
heavy 2: EVRLLESGGGLVQPGGSLRLSCAASGFTFSNYAMGWVRQAPGKGLEWVSAISGSGGSTYYADSVKGRFTTSRDDSKNALYLQMNSLRAEDTAVYYCARGGPGWYAADVWGQGTTVTVSS[here human IgG1 constant region with changes without letters]
light: B1 light
